The whole screen tested about 310,000 compounds, of which about 14,000 (4.5%) showed an effect of 50% or more. Effects have a minus sign here. This is one part of the list.

This is an account of results in publication PMC4336329 (PLoS ONE, 2015).
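Also: peak tail current of the secondary pulse compared with the same well before compound.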

The target of this test is human ether-à-go-go-related gene (hERG) potassium channel (human, UniProt Q12809). Kind of test: primary screen, population patch clamp on CHO cells stably expressing hERG.
Chain of human ether-à-go-go-related gene (hERG) potassium channel (Q12809 whole entry, looked up): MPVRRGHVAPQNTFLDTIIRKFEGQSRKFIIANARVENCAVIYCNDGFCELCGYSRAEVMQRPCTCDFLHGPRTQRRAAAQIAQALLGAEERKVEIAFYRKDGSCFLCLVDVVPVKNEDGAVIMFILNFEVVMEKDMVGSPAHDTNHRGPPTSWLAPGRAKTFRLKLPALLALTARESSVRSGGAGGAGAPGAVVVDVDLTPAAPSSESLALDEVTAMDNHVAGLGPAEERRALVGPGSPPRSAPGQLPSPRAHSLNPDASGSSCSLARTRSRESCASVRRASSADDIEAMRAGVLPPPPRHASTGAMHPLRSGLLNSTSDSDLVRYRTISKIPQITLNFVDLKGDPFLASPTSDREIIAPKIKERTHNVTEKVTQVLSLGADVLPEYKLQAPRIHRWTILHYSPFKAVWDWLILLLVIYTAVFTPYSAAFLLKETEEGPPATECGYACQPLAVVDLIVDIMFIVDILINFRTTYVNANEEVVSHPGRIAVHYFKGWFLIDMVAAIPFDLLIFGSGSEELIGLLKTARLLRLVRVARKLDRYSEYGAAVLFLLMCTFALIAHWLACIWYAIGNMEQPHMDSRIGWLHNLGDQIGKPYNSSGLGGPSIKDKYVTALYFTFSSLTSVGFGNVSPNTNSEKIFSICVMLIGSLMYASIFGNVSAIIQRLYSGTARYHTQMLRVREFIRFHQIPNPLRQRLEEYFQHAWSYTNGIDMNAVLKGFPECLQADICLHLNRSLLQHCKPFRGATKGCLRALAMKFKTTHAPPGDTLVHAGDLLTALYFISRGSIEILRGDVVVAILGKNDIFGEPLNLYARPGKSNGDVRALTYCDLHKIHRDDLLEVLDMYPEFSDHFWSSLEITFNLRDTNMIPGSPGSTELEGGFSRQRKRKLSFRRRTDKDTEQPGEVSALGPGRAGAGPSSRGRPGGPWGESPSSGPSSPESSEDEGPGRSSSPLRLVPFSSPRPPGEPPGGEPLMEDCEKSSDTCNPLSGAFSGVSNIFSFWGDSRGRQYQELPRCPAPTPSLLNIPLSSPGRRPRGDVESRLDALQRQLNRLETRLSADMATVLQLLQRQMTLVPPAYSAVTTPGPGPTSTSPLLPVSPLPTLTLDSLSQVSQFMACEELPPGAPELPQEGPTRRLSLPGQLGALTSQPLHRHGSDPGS
Take `O=C1C(Cc2ccccc2)SC(=Nc2ccccc2)N1c1ccccc1` (stereo not shown): the “hERG current change (%, negative = inhibition) at 10uM” value was 16.6%. Regarding `O=C(Nc1ccc(-c2noc(COc3ccccc3Cl)n2)cc1)c1ccco1`, the “hERG current change (%, negative = inhibition) at 10uM” value was 17.6%. In the case of `Cc1cn(S(=O)(=O)c2ccc(Br)c3ccccc23)cn1`, the “hERG current change (%, negative = inhibition) at 10uM” value worked out at 6.78%.

Take `COCCCNC(=O)c1cn(-c2cccc(OC)c2)c(=O)c2ccccc12`: the “hERG current change (%, negative = inhibition) at 10uM” value came out at 18.1%. Then `CC(=O)O[C@@H]1C[C@H]2C(C)(C)C(=O)C=C[C@]2(C)[C@H]2CC[C@@]3(C)[C@H](c4ccoc4)OC(=O)[C@H]4O[C@]43[C@@]21C`, with -43.1%; and `Cc1c(Cl)cccc1NC(=O)CCCn1cnc([N+](=O)[O-])n1`, with -2.37%; and `CCN(CC)C(=O)COc1cc(C)cc2oc(=O)cc(-c3ccccc3)c12`, with -34.5%. Turning to `Cc1ccc(CNCCCSc2ncccn2)cc1`, the “hERG current change (%, negative = inhibition) at 10uM” value was -15.5%.

For the molecule `Cc1cc(-c2ccc(/C=N/n3cnnc3)o2)c(C)c([N+](=O)[O-])c1`, the “hERG current change (%, negative = inhibition) at 10uM” value turned out to be 4.61%. Consider `CC(=O)Nc1ccc(NS(=O)(=O)c2ccc(OC(C)C(=O)N3CCOCC3)cc2)cc1` (stereo not shown), for which the “hERG current change (%, negative = inhibition) at 10uM” value was -9.39%. Then `COc1cccc(N2[C@@H](CC(C)=O)c3cc(C(F)(F)F)ccc3S2(=O)=O)c1`, with 1.46%; and `Cc1ccccc1-c1cc(C(=O)n2cccn2)c2cc(Cl)ccc2n1`, with 3.41%; and `Cc1ccc(/C=N/NC(=O)c2nc3nc(C)cc(C)n3n2)cc1`, with -12.6%. For the molecule `O=C(Nc1ccn(Cc2cccc3ccccc23)n1)c1cccnc1`, the “hERG current change (%, negative = inhibition) at 10uM” value was 0.177%. For `CS(=O)(=O)N(CC(=O)NCC1CCCO1)c1cccc(Cl)c1` (stereo not shown), the “hERG current change (%, negative = inhibition) at 10uM” value came out at 17.3%. With `C/C(CC(=O)Nc1cccc(Cl)c1)=N\NC(=O)Cc1ccc(Cl)cc1`, the “hERG current change (%, negative = inhibition) at 10uM” value is on record as -5.29%.

For `COCCNC(=O)C(=O)NCC1OCCN1S(=O)(=O)c1ccc(F)cc1` (stereo not shown), the “hERG current change (%, negative = inhibition) at 10uM” value was determined as 0.707%. For the molecule `COc1cc(NC(=O)C2CC(=O)NC3=C2C(=O)CC(C)(C)C3)c(OC)cc1Cl` (stereo not shown), the “hERG current change (%, negative = inhibition) at 10uM” value is -29.3%. With `Cc1cccc(C(=O)NCC(c2ccco2)N2CCc3ccccc32)c1` (stereo not shown), the “hERG current change (%, negative = inhibition) at 10uM” value is on record as -25.6%.

`Cc1nc2nc[nH]n2c(=O)c1CC(=O)O`: the “hERG current change (%, negative = inhibition) at 10uM” value worked out at 1.37%. With `COc1cc(NC(=O)Cn2cnc(S(=O)(=O)N3CCCC3)c2)cc(OC)c1OC`, the “hERG current change (%, negative = inhibition) at 10uM” value was 15.1%. Consider `CCOc1cc(CNn2cnnc2)cc(Cl)c1OCC(=O)NC(C)(C)C`, for which the “hERG current change (%, negative = inhibition) at 10uM” value came out at 5.17%. For the molecule `COc1cc(Br)ccc1NC(=O)c1ccccc1-c1ccccc1C(=O)O`, the “hERG current change (%, negative = inhibition) at 10uM” value is 14%. For `Cc1cc(Cl)ccc1OCCCC(=O)OCC(N)=O` the value was -3.29%; for `O=c1c(Cl)c(N2CCCCC2)cnn1-c1nc2ccccc2[nH]1`, -47.8%.

For the molecule `C/C(=N\NC(=O)c1nnn(-c2nonc2N)c1C(C)C)c1cc(C)sc1C`, the “hERG current change (%, negative = inhibition) at 10uM” value amounted to 10.2%.

On to `Cc1ccc(S(=O)(=O)N(C)c2ccc(C(=O)NCC3(N(C)C)CCCCC3)cc2)cc1`, for which the “hERG current change (%, negative = inhibition) at 10uM” value was -65.4%. `COc1ccccc1C(=O)Nc1ccon1`: the “hERG current change (%, negative = inhibition) at 10uM” value is reported as -4.26%. For `COCCn1c(-c2ccc(Cl)cc2Cl)nc2c(c(=O)c3ccccc3n2C)c1=O`, the “hERG current change (%, negative = inhibition) at 10uM” value was -8.66%. Consider `O=C(CN(CC1CCCO1)S(=O)(=O)c1ccc(S(=O)(=O)NC2CC2)cc1)Nc1ccccc1` (stereo not shown), for which the “hERG current change (%, negative = inhibition) at 10uM” value is -41.9%. As for `CSc1ccccc1OCc1cc(C(=O)N2CCN(c3ncccn3)CC2)no1`, the “hERG current change (%, negative = inhibition) at 10uM” value is on record as -19.6%. In the case of `Cc1cccc(Nc2ncnc3c2cnn3C)c1`, the “hERG current change (%, negative = inhibition) at 10uM” value was -28.1%. For the molecule `CC(=O)COc1c(-c2ccco2)oc2ccccc2c1=O`, the “hERG current change (%, negative = inhibition) at 10uM” value came out at 4.55%. `COC(=O)c1cccc(NC(=O)c2nn(C)c(=O)c3ccccc23)c1`: the “hERG current change (%, negative = inhibition) at 10uM” value is -14.5%. With `CCC1CCCCN1CCCNC(=O)C1CCN(S(=O)(=O)N2CCCCC2)CC1` (stereo not shown), the “hERG current change (%, negative = inhibition) at 10uM” value is reported as -6.14%. For `CC(NCc1ccc(Cl)cc1)C(O)c1ccccc1.Cl` (stereo not shown), the “hERG current change (%, negative = inhibition) at 10uM” value came out at 0.613%.

Consider `CCCCNS(=O)(=O)c1cc2c3c(c1)CCN3C(=O)CC2`, for which the “hERG current change (%, negative = inhibition) at 10uM” value is 4.12%. With `COc1ccc(N2CCN(C(=O)c3cccc(Br)c3)CC2)c([N+](=O)[O-])c1`, the “hERG current change (%, negative = inhibition) at 10uM” value was -87.1%. As for `Cn1c(=O)oc2cc(S(=O)(=O)NCCC(=O)N3CCN(c4ccccc4)CC3)ccc21`, the “hERG current change (%, negative = inhibition) at 10uM” value is recorded as 7.95%. For `O=C(Nc1ccc(S(=O)(=O)Nc2ncccn2)cc1)C1=NN(c2ccccc2)C(=O)CC1` the value was 0.606%; for `Cc1ccc(/C=N/NC(=O)CSc2nnc(-c3ccc(Cl)cc3)n2-c2ccc(Cl)cc2)o1`, -9.79%; for `CCCCn1c(SCC(=O)OCC)nc2c(sc(=S)n2-c2ccccc2OC)c1=O`, -5.13%.

Consider `Cc1cc(C)n2cc(CSCC(=O)O)nc2n1`, for which the “hERG current change (%, negative = inhibition) at 10uM” value was 19.6%.
